Source: article PMC11911400, “Mechanism of ASF1 engagement by CDAN1” (Nature Communications, 2025)
Positions count from the first letter of the chain named. No constants are given. Whether binding was seen depends on the method and setting. In cells and extracts the contact can be indirect. Some binding calls cover weakened binding; strength is not graded here.

By UniProt entry, the sequences of proteins in these tests, tags left out. Where a name states a change or a piece, a line headed by the entry shows the natural chain unless it says otherwise. Chains listed by the source or under a name are the forms on record and can include a tag or linker.
UniProt Q9NVP2: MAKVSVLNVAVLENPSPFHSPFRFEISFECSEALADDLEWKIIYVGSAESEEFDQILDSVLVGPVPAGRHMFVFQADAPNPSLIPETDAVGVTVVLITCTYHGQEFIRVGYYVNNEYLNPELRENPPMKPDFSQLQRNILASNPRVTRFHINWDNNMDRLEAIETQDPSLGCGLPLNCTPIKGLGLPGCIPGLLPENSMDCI
FLAG-ASF1B N > A (ASF1B with the NTD of ASF1A) (Q9NVP2, form named): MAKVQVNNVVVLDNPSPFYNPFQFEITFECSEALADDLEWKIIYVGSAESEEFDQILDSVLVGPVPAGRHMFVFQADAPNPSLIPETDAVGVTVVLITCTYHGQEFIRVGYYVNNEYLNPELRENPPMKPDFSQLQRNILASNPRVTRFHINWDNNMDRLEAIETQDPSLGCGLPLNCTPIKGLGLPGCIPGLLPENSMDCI
UniProt Q9Y294: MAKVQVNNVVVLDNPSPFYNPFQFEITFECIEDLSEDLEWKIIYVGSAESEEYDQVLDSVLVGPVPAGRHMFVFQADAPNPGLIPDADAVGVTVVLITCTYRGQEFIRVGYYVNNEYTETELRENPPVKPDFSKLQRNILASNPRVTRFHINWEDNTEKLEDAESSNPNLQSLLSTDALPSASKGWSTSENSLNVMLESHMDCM
FLAG-ASF1A N > B (ASF1A with the NTD of ASF1B) (Q9Y294, form named): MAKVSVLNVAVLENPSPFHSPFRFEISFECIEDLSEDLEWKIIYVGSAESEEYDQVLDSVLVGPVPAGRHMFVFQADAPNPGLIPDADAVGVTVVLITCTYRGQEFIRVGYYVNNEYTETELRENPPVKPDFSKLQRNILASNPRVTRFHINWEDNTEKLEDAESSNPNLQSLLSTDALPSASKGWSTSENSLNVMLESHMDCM

Tests used:
[1] = biological target: T1, Strep-CDAN1 HMHA1* (R541A/R544A/R548A) (human) (UniProt Q8IWY9); test: pull-down; Strep-Tactin pulldown of ST-CDAN1 variants co-transfected with FLAG-tagged ASF1A or ASF1B variants in Flp-In 293 T-REx cells; immunoblotting; IP buffer with 1% Triton X-100, 1 hr at 4 °C
T1 sequence: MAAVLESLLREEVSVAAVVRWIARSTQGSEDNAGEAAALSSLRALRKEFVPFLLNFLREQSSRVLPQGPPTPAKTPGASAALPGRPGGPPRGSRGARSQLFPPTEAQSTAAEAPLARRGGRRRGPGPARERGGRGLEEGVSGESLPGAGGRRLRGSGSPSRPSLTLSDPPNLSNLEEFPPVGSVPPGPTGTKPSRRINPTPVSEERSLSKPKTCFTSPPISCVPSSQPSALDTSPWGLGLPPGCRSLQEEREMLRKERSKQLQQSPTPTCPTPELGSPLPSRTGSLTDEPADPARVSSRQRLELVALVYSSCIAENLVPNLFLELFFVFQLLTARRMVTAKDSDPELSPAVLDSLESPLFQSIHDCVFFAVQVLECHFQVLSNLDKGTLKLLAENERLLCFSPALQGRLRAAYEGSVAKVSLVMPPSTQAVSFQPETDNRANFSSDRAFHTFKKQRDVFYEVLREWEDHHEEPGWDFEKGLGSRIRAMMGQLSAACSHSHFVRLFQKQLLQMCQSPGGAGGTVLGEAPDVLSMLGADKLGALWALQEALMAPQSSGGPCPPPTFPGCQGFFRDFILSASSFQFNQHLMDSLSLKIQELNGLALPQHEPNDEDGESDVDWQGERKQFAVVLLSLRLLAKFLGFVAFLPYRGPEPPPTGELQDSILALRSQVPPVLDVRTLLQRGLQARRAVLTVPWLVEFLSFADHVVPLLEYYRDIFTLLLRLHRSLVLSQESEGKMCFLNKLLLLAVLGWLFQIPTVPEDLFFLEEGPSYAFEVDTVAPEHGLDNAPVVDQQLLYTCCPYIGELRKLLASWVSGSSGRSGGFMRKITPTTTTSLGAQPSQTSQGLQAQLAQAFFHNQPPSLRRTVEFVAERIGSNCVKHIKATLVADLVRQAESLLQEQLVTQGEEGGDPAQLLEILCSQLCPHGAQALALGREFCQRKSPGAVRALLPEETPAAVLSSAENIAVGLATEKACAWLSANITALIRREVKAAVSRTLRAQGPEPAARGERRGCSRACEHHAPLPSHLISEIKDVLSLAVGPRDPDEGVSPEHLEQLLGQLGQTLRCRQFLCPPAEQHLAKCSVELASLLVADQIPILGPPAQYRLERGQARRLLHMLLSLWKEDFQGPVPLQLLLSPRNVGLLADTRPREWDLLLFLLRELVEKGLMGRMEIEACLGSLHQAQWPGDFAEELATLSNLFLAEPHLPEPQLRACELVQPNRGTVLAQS

[2] = biological target: T2, Strep-CDAN1 HMHA1* BDA2* (human) (UniProt Q8IWY9); test: as above
T2 sequence: T1 sequence with S194A, R195A, R196A

Row | binding [1] | binding [2] | Substance
1 | binds | no binding | FLAG-ASF1B N > A (ASF1B with the NTD of ASF1A) (from UniProt Q9NVP2 1-202)
2 | no binding | no binding | FLAG-ASF1A N > B (ASF1A with the NTD of ASF1B) (from UniProt Q9Y294 1-204)
3 | binds | no binding | FLAG-tagged ASF1A (F-ASF1A) (from UniProt Q9Y294 1-204)
4 | no binding | no binding | FLAG-tagged ASF1B (F-ASF1B) (from UniProt Q9NVP2 1-202)
